Test results reported in the supplement of paper PMC10126150.
Values marked as one replicate rest on one cluster of the flow cell; about a third of the high ones do not repeat.
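Note: ATP exposure 15 min at 22 °C before imaging.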

These sequences were tested on ATP (assay: switch fluorescence ratio, 500 uM ATP over buffer (Cy3 cluster intensity, sum of 5 cycles each) (fold (ratio)); higher = stronger signal-on switching upon ATP binding; sequences stand for … in TCGTCGGCAGCGTCAGATGTGTATAAGAGACAGTTTTTTTTTTTTTTTTTTTTTTTTT…TC). Conditions: aptamer strand: ATP DNA aptamer (quencher-CACCTGGGGGAGTATTGCGGAGGAAGG + anchor), 100 nM annealed; ATP concentration: 500 uM; one replicate.
Procedure, shortened: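 Per cluster, summed Cy3 intensity from the target cycles was divided by that from the buffer cycles to give the fluorescence ratio, then averaged per switch-domain sequence. Clusters outside 100-1000 RFU were excluded. The Cy3-labelled switching-strand clusters, on a modified Illumina MiSeq flow-cell, were annealed to 100 nM quencher-labelled ATP aptamer and imaged in selection buffer, then after 15 min with 500 uM ATP at 22 °C, for five cycles with NaOH stripping and re-annealing between them.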
Sequence AAGTGGCGGT has a switch fluorescence ratio of 1.01.
For CGTGCTAC, the switch fluorescence ratio was 1.43.
Work on TATGTATTTG yielded a switch fluorescence ratio of 1.
GACATGGGAG showed a switch fluorescence ratio of 1.03.
In the case of GGGTACACTG, the switch fluorescence ratio is reported as 0.971.
Work on CTTTTTCGCA yielded a switch fluorescence ratio of 1.08.
In the case of CCACCTAATA, the switch fluorescence ratio is reported as 1.35.
Work on AGCTGCAAGG yielded a switch fluorescence ratio of 1.
For TATTATTCCT, the switch fluorescence ratio was 1.19.
CACTTTTATT showed a switch fluorescence ratio of 0.995.
Work on GCTCCGAGTG yielded a switch fluorescence ratio of 1.77.
Sequence GACCGCAGCG has a switch fluorescence ratio of 1.05.
CAGTGTAGGC gave a switch fluorescence ratio of 0.997.
TACTGAGGGT was tested, and the switch fluorescence ratio was 0.981.
With CTAGTCATT the switch fluorescence ratio was 0.979.
TTTTACACG gave a switch fluorescence ratio of 0.982.
Work on AGTGATATGT yielded a switch fluorescence ratio of 0.982.
GATTAACTA was tested, and the switch fluorescence ratio was 0.974.
Work on AAATCAGTTG yielded a switch fluorescence ratio of 1.01.
Work on CTATGTCCTA yielded a switch fluorescence ratio of 0.985.
Sequence GAGGGCTTTC has a switch fluorescence ratio of 1.05.
ACTTACAAGA showed a switch fluorescence ratio of 1.18.
With TTGTGATGCT the switch fluorescence ratio was 1.04.
Work on ATAAGATGCA yielded a switch fluorescence ratio of 1.21.
With AATTAGATAG the switch fluorescence ratio was 0.98.
ATATAGGAAA gave a switch fluorescence ratio of 1.04.
GCGCGCGTCT was tested, and the switch fluorescence ratio was 0.988.
For GTCTTACTGT, the switch fluorescence ratio was 0.96.
Work on TTTGTCCTTG yielded a switch fluorescence ratio of 0.99.
Sequence CGGGGTCGT has a switch fluorescence ratio of 1.03.
Work on ATTATACGGT yielded a switch fluorescence ratio of 1.
GTACGCATG gave a switch fluorescence ratio of 1.03.
Sequence CGTCTACCGA has a switch fluorescence ratio of 0.97.
TGGCACCTAT was tested, and the switch fluorescence ratio was 1.07.
For CACCGGGGTC, the switch fluorescence ratio was 1.05.
Sequence CTGGGGCAAA has a switch fluorescence ratio of 1.28.
With TAGGCCGGTA the switch fluorescence ratio was 0.993.
Sequence GTTATTTTCA has a switch fluorescence ratio of 0.985.
With CCGGTGTACT the switch fluorescence ratio was 2.92.
Work on AGTGGGAAA yielded a switch fluorescence ratio of 1.01.
In the case of ACGATAGCTT, the switch fluorescence ratio is reported as 1.2.
GAAGTCGGAG showed a switch fluorescence ratio of 0.966.
In the case of GACATTATCC, the switch fluorescence ratio is reported as 1.04.
For TTTGTTGCG, the switch fluorescence ratio was 0.994.
In the case of TGTTTAACGC, the switch fluorescence ratio is reported as 0.986.
Sequence GTGCTAGGAG has a switch fluorescence ratio of 1.02.
In the case of ATTTCGGTGT, the switch fluorescence ratio is reported as 1.38.
GGCATATGAA showed a switch fluorescence ratio of 0.964.
For AGGACAGACG, the switch fluorescence ratio was 1.06.
TGTTCGTGC showed a switch fluorescence ratio of 1.02.
Work on AGTCCATGTC yielded a switch fluorescence ratio of 1.04.
Work on TCGTTGCGGT yielded a switch fluorescence ratio of 0.999.
AAGTGCGAGC was tested, and the switch fluorescence ratio was 1.06.
TCGGCCGAGC gave a switch fluorescence ratio of 1.01.
TCCGGTCCAG gave a switch fluorescence ratio of 1.09.
Work on AGATCCTTT yielded a switch fluorescence ratio of 1.
GTAATAATAT gave a switch fluorescence ratio of 0.977.
With TAACTTGTAA the switch fluorescence ratio was 1.01.
With TCACTATTTG the switch fluorescence ratio was 1.
With AAGGGTTATC the switch fluorescence ratio was 1.02.
GTGCTGAA showed a switch fluorescence ratio of 0.948.
With TCTGGGTTTT the switch fluorescence ratio was 1.04.
For CGTAGGCTAC, the switch fluorescence ratio was 1.64.
In the case of TTAACGAATA, the switch fluorescence ratio is reported as 1.01.
With TCATCTATAG the switch fluorescence ratio was 1.01.
For TAGGGAGTGA, the switch fluorescence ratio was 0.925.
In the case of TTGTCGATTT, the switch fluorescence ratio is reported as 1.08.
For AGGGGCAGGC, the switch fluorescence ratio was 0.769.
In the case of ATGGCCTTCG, the switch fluorescence ratio is reported as 1.14.
Sequence CGGCGAGACT has a switch fluorescence ratio of 1.35.
CATACATGGG gave a switch fluorescence ratio of 1.05.
TCACCGTTTT was tested, and the switch fluorescence ratio was 1.07.
TACCGCTACG showed a switch fluorescence ratio of 1.21.
Work on TGGCAGCTGA yielded a switch fluorescence ratio of 0.981.
With TGTTGGATGC the switch fluorescence ratio was 1.02.
ATTCGAGTCA was tested, and the switch fluorescence ratio was 0.99.
AGCTATGCCA was tested, and the switch fluorescence ratio was 0.949.
Sequence AGGAGTGCAG has a switch fluorescence ratio of 1.02.
Sequence ACGTTGCACG has a switch fluorescence ratio of 1.01.
Work on GTTTTCCTCG yielded a switch fluorescence ratio of 2.12.
TTTTCATCCC showed a switch fluorescence ratio of 1.05.
With CTCCTTTGCC the switch fluorescence ratio was 1.09.
CAGAGAGCAC was tested, and the switch fluorescence ratio was 1.01.
For TTGGGCTATG, the switch fluorescence ratio was 1.
For GGGTACAGAG, the switch fluorescence ratio was 0.981.
In the case of ATGGACGTGC, the switch fluorescence ratio is reported as 0.984.
Sequence TTAGACCTAT has a switch fluorescence ratio of 0.966.
TAGAGGGACG gave a switch fluorescence ratio of 1.12.
TACCAGGGCG showed a switch fluorescence ratio of 1.08.
Work on GGGTTCTCAC yielded a switch fluorescence ratio of 1.05.
Sequence TAGGCTTATT has a switch fluorescence ratio of 1.03.
CATTTTGGAG showed a switch fluorescence ratio of 1.01.
AACCCTTCGG showed a switch fluorescence ratio of 0.95.
In the case of AGGAGTATCT, the switch fluorescence ratio is reported as 0.972.
Work on TTACAACTTA yielded a switch fluorescence ratio of 1.01.
With CCAAATTGGT the switch fluorescence ratio was 1.
GGCCTACCAG was tested, and the switch fluorescence ratio was 1.02.
In the case of AGGCGTTTAA, the switch fluorescence ratio is reported as 0.999.
Work on ATCAAACGA yielded a switch fluorescence ratio of 1.02.
For GCAGCGACGG, the switch fluorescence ratio was 1.08.
ACCTATGT was tested, and the switch fluorescence ratio was 1.02.
Work on ACTTATCGCA yielded a switch fluorescence ratio of 1.74.
Work on ATCCCAGTAT yielded a switch fluorescence ratio of 1.06.
With CAAGGAATTC the switch fluorescence ratio was 0.977.
Work on TCGTTGACTA yielded a switch fluorescence ratio of 1.01.
ACACCTAGCA was tested, and the switch fluorescence ratio was 1.07.
AATAACACAC gave a switch fluorescence ratio of 1.27.
Sequence CGTAATACAG has a switch fluorescence ratio of 1.21.
GCCCAGAAGA gave a switch fluorescence ratio of 1.06.
For AGAGGTAGGT, the switch fluorescence ratio was 1.
Work on AACTGATCGT yielded a switch fluorescence ratio of 0.982.
Sequence AGATAACCGG has a switch fluorescence ratio of 0.994.
With GTCCTGCAGA the switch fluorescence ratio was 1.07.
With CGCGGCGCAT the switch fluorescence ratio was 1.05.
Sequence AATTATCTTT has a switch fluorescence ratio of 1.02.
ACGCATAGGA showed a switch fluorescence ratio of 1.21.
GGCAGATTAA gave a switch fluorescence ratio of 0.962.
In the case of CACAGGTCGC, the switch fluorescence ratio is reported as 1.01.
For TCAGGTAAAG, the switch fluorescence ratio was 1.1.
Sequence TTGGTAGCAG has a switch fluorescence ratio of 1.
For GTCTATTTTT, the switch fluorescence ratio was 1.09.
AATAAAAAAT gave a switch fluorescence ratio of 1.02.
AGCGACGATT gave a switch fluorescence ratio of 0.992.
For ATATTTCCAG, the switch fluorescence ratio was 1.01.
TGGGTACGG was tested, and the switch fluorescence ratio was 1.04.
Work on TTTGCGTCAA yielded a switch fluorescence ratio of 1.07.
TCCGGCAGTT showed a switch fluorescence ratio of 1.18.
For AGGCTGATAT, the switch fluorescence ratio was 1.03.
Sequence CGAAAAAACT has a switch fluorescence ratio of 1.03.
AAAGAATCAT showed a switch fluorescence ratio of 0.986.
Work on CAGCTATAAA yielded a switch fluorescence ratio of 1.01.
TGTAATAGCT showed a switch fluorescence ratio of 1.24.
CGTAAGTCAG was tested, and the switch fluorescence ratio was 1.03.
GTGGCCATGA gave a switch fluorescence ratio of 0.953.
With CGTCGTCTGG the switch fluorescence ratio was 1.01.
Work on GGGCAATAGT yielded a switch fluorescence ratio of 2.65.
TGTTCTAGCG was tested, and the switch fluorescence ratio was 1.02.
CATGACGTGC was tested, and the switch fluorescence ratio was 1.07.
Work on GTCAATCACG yielded a switch fluorescence ratio of 1.07.
Work on GTTAGATTTT yielded a switch fluorescence ratio of 0.951.
CATCCTTATA showed a switch fluorescence ratio of 1.06.
Work on GAAGTCTCT yielded a switch fluorescence ratio of 1.01.
TACCAATTGC showed a switch fluorescence ratio of 1.07.
For CTAATCCCAC, the switch fluorescence ratio was 1.
In the case of ACCTGTTATA, the switch fluorescence ratio is reported as 1.08.
In the case of TCATGCAGG, the switch fluorescence ratio is reported as 0.975.
Sequence CTCTGTGTGC has a switch fluorescence ratio of 2.14.
For GGCTAGACGA, the switch fluorescence ratio was 1.01.
CTTGTGCCCG was tested, and the switch fluorescence ratio was 1.11.
In the case of GATACATAGT, the switch fluorescence ratio is reported as 0.996.
With CGCTTGATGG the switch fluorescence ratio was 0.972.
For AATGGCTATC, the switch fluorescence ratio was 0.998.
Work on TACCCAGGAC yielded a switch fluorescence ratio of 1.29.
Sequence TTAGTCGAAC has a switch fluorescence ratio of 1.07.
With GGGGTGGTG the switch fluorescence ratio was 0.972.
AGGGAATGGG was tested, and the switch fluorescence ratio was 0.97.
GTAGGGAAAT gave a switch fluorescence ratio of 0.95.
